Experimental data taken from the supplement of paper PMC8728848.
The list shows a part of the results.

What was measured:
Assay in all cases: glycan array binding signal (z-score within array); higher = stronger binding
Settings in all cases: glycan notation: IUPAC condensed, linker removed
[1] = molecular target: Gal(a1-3)Gal(b1-4)[Fuc(a1-3)]GalNAc
In short: (§1)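 Arrays were curated from the Consortium for Functional Glycomics database, 3228 in total, and kept only where the protein sequence was available. Binding is expressed as a within-array Z-score. This score was averaged across arrays of the same protein sequence at different concentrations or buffers and across linkers, and negative values can be read as non-binding.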

[2] = molecular target: Gal(a1-3)Gal(b1-4)[Fuc(a1-3)]GlcNAc
In short: as §1

[3] = molecular target: Gal(a1-3)Gal(b1-4)[Fuc(a1-3)]GlcNAc(b1-2)Man(a1-3)[Gal(a1-3)Gal(b1-4)[Fuc(a1-3)]GlcNAc(b1-2)Man(a1-6)]Man(b1-4)GlcNAc(b1-4)GlcNAc
In short: as §1

[4] = molecular target: Gal(a1-3)GalNAc
In short: as §1

[5] = molecular target: Gal(a1-3)GlcNAc
In short: as §1

[6] = molecular target: Gal(a1-3)[Gal(a1-4)]Gal(b1-4)GlcNAc
In short: as §1

[7] = molecular target: Gal(a1-4)Gal(b1-3)GlcNAc(b1-2)Man(a1-3)[Gal(a1-4)Gal(b1-3)GlcNAc(b1-2)Man(a1-6)]Man(b1-4)GlcNAc(b1-4)GlcNAc
In short: as §1

[8] = molecular target: Gal(a1-4)Gal(b1-4)Gal
In short: as §1

[9] = molecular target: Gal(a1-4)Gal(b1-4)GalNAc
In short: as §1

[10] = molecular target: Gal(a1-4)Gal(b1-4)Glc
In short: as §1

[11] = molecular target: Gal(a1-4)Gal(b1-4)GlcNAc
In short: as §1

[12] = molecular target: Gal(a1-4)Gal(b1-4)GlcNAc(b1-2)Man(a1-3)[Gal(a1-4)Gal(b1-4)GlcNAc(b1-2)Man(a1-6)]Man(b1-4)GlcNAc(b1-4)GlcNAc
In short: as §1

[13] = molecular target: Gal(a1-4)Gal(b1-4)GlcNAc(b1-3)Gal(b1-4)Glc
In short: as §1

[14] = molecular target: Gal(a1-4)GlcNAc
In short: as §1

[15] = molecular target: Gal(a1-6)Glc
In short: as §1

[16] = molecular target: Gal(b1-2)Gal
In short: as §1

[17] = molecular target: Gal(b1-3)Gal
In short: as §1

[18] = molecular target: Gal(b1-3)Gal(b1-4)GlcNAc
In short: as §1

[19] = molecular target: Gal(b1-3)GalNAc
In short: as §1

[20] = molecular target: Gal(b1-3)GalNAc(a1-3)[Fuc(a1-2)]Gal(b1-4)Glc
In short: as §1

[21] = molecular target: Gal(b1-3)GalNAc(a1-3)[Fuc(a1-2)]Gal(b1-4)GlcNAc
In short: as §1

[22] = molecular target: Gal(b1-3)GalNAc(b1-3)Gal
In short: as §1

[23] = molecular target: Gal(b1-3)GalNAc(b1-3)Gal(a1-4)Gal(b1-4)Glc
In short: as §1

[24] = molecular target: Gal(b1-3)GalNAc(b1-3)Gal(b1-4)Glc
In short: as §1

[25] = molecular target: Gal(b1-3)GalNAc(b1-3)Gal(b1-4)GlcNAc
In short: as §1

[26] = molecular target: Gal(b1-3)GalNAc(b1-4)Gal(b1-4)Glc
In short: as §1

[27] = molecular target: Gal(b1-3)GalNAc(b1-4)[Neu5Ac(a2-3)]Gal(b1-4)Glc
In short: as §1

[28] = molecular target: Gal(b1-3)GlcNAc
In short: as §1

[29] = molecular target: Gal(b1-3)GlcNAc(a1-3)Gal(b1-4)GlcNAc
In short: as §1

[30] = molecular target: Gal(b1-3)GlcNAc(a1-6)Gal(b1-4)GlcNAc
In short: as §1

[31] = molecular target: Gal(b1-3)GlcNAc(b1-2)Man
In short: as §1

[32] = molecular target: Gal(b1-3)GlcNAc(b1-2)Man(a1-3)[Gal(b1-3)GlcNAc(b1-2)Man(a1-6)]Man(b1-4)GlcNAc(b1-4)GlcNAc
In short: as §1

[33] = molecular target: Gal(b1-3)GlcNAc(b1-2)Man(a1-3)[Gal(b1-3)GlcNAc(b1-2)Man(a1-6)]Man(b1-4)GlcNAc(b1-4)[Fuc(a1-6)]GlcNAc
In short: as §1

[34] = molecular target: Gal(b1-3)GlcNAc(b1-2)Man(a1-3)[GlcNAc(b1-4)][Gal(b1-3)GlcNAc(b1-2)Man(a1-6)]Man(b1-4)GlcNAc(b1-4)GlcNAc
In short: as §1

[35] = molecular target: Gal(b1-3)GlcNAc(b1-2)[Gal(b1-3)GlcNAc(b1-6)]Man(a1-6)[Gal(b1-3)GlcNAc(b1-2)Man(a1-3)]Man(b1-4)GlcNAc(b1-4)GlcNAc
In short: as §1

[36] = molecular target: Gal(b1-3)GlcNAc(b1-3)Gal(b1-3)GlcNAc
In short: as §1

[37] = molecular target: Gal(b1-3)GlcNAc(b1-3)Gal(b1-4)Glc
In short: as §1

[38] = molecular target: Gal(b1-3)GlcNAc(b1-3)Gal(b1-4)GlcNAc
In short: as §1

[39] = molecular target: Gal(b1-3)GlcNAc(b1-3)Gal(b1-4)GlcNAc(b1-2)Man(a1-3)[Gal(b1-3)GlcNAc(b1-3)Gal(b1-4)GlcNAc(b1-2)Man(a1-6)]Man(b1-4)GlcNAc(b1-4)GlcNAc
In short: as §1

[40] = molecular target: Gal(b1-3)GlcNAc(b1-3)Gal(b1-4)GlcNAc(b1-2)[Gal(b1-3)GlcNAc(b1-3)Gal(b1-4)GlcNAc(b1-6)]Man(a1-6)[Gal(b1-3)GlcNAc(b1-3)Gal(b1-4)GlcNAc(b1-2)Man(a1-3)]Man(b1-4)GlcNAc(b1-4)[Fuc(a1-6)]GlcNAc
In short: as §1

[41] = molecular target: Gal(b1-3)GlcNAc(b1-3)Gal(b1-4)GlcNAc(b1-3)Gal(b1-4)GlcNAc(b1-2)[Gal(b1-3)GlcNAc(b1-3)Gal(b1-4)GlcNAc(b1-3)Gal(b1-4)GlcNAc(b1-6)]Man(a1-6)[Gal(b1-3)GlcNAc(b1-3)Gal(b1-4)GlcNAc(b1-3)Gal(b1-4)GlcNAc(b1-2)Man(a1-3)]Man(b1-4)GlcNAc(b1-4)[Fuc(a1-6)]GlcNAc
In short: as §1

[42] = molecular target: Gal(b1-3)GlcNAc(b1-3)Gal(b1-4)GlcNAc(b1-6)[Gal(b1-3)GlcNAc(b1-3)]Gal(b1-4)Glc
In short: as §1

[43] = molecular target: Gal(b1-3)GlcNAc(b1-3)Gal(b1-4)[Fuc(a1-3)]GlcNAc
In short: as §1

[44] = molecular target: Gal(b1-3)GlcNAc(b1-3)Gal(b1-4)[Fuc(a1-3)]GlcNAc(b1-6)[Gal(b1-3)GlcNAc(b1-3)]Gal(b1-4)Glc
In short: as §1

[45] = molecular target: Gal(b1-3)GlcNAc(b1-3)GalNAc
In short: as §1

B1: AAA (Anguilla anguilla), Q7SIC1 (protein)
chain: VIPEGYTQENVAVRGKATQSAQLRGEHAANSEASNAIDGNRDSNFYHGSCTHSSGQANPWWRVDLLQVYTITSVTITNRGDCCGERISGAEINIGQHLASNGVNNPECSVIGSMATGETKTFHCPAPMIGRYVVTYLPTSESLHLCEVEVNVDKPAAA
glycan array binding signal (z-score) [1]: -0.484 | glycan array binding signal (z-score) [2]: -0.078 | glycan array binding signal (z-score) [3]: -0.535 | glycan array binding signal (z-score) [4]: -0.046 | glycan array binding signal (z-score) [5]: -0.416 | glycan array binding signal (z-score) [6]: -0.047 | glycan array binding signal (z-score) [7]: -0.227 | glycan array binding signal (z-score) [8]: -0.282 | glycan array binding signal (z-score) [9]: -0.239 | glycan array binding signal (z-score) [10]: -0.079 | glycan array binding signal (z-score) [11]: -0.15 | glycan array binding signal (z-score) [12]: -0.144 | glycan array binding signal (z-score) [13]: -0.163 | glycan array binding signal (z-score) [14]: 0.094 | glycan array binding signal (z-score) [15]: -0.097 | glycan array binding signal (z-score) [16]: -0.184 | glycan array binding signal (z-score) [17]: -0.043 | glycan array binding signal (z-score) [18]: -0.117 | glycan array binding signal (z-score) [19]: 0.365 | glycan array binding signal (z-score) [20]: -0.279 | glycan array binding signal (z-score) [21]: 0.026 | glycan array binding signal (z-score) [22]: -0.155 | glycan array binding signal (z-score) [23]: -0.051 | glycan array binding signal (z-score) [24]: 0.237 | glycan array binding signal (z-score) [25]: -0.758 | glycan array binding signal (z-score) [26]: -0.284 | glycan array binding signal (z-score) [27]: -0.122 | glycan array binding signal (z-score) [28]: -0.187 | glycan array binding signal (z-score) [29]: -0.27 | glycan array binding signal (z-score) [30]: -0.192 | glycan array binding signal (z-score) [31]: -0.151 | glycan array binding signal (z-score) [32]: -0.149 | glycan array binding signal (z-score) [33]: -0.043 | glycan array binding signal (z-score) [34]: -0.119 | glycan array binding signal (z-score) [35]: -0.18 | glycan array binding signal (z-score) [36]: -0.126 | glycan array binding signal (z-score) [37]: -0.169 | glycan array binding signal (z-score) [38]: -0.173 | glycan array binding signal (z-score) [39]: -0.223 | glycan array binding signal (z-score) [40]: 0.216 | glycan array binding signal (z-score) [41]: -0.041 | glycan array binding signal (z-score) [42]: -0.172 | glycan array binding signal (z-score) [43]: -0.057 | glycan array binding signal (z-score) [44]: -0.209 | glycan array binding signal (z-score) [45]: -0.246
